# In all, about 290,000 compounds went through this assay and about 2,100 (0.72%) were called active. Inconclusive means that the source gave no clear call. Such entries were picked first, then a sample of the others. Calls follow the shape of the dose curve; as a rule, active = well fitted inhibition curve with a large enough effect; inconclusive = small, poorly fitted or top-dose-only effect, or effect the other way; inactive = flat fitted curve, though single readings scatter. A potency beside an inconclusive call is a rough fit, not a confirmed value.
# Biological target: Fructose-bisphosphate aldolase (Giardia intestinalis (strain ATCC 50803 / WB clone C6)) (UniProt A8B2U2)
# Assay: qHTS Assay for Inhibitors of Fructose-1,6-bisphosphate Aldolase from Giardia Lamblia; also: nearly all actives have a fitted effect of over 55% in size
# Details: purified Giardia FBPA; activity, negative = inhibition: at 59.6 µM (top of the series) unless noted
# In short: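 40 nM FBPA preincubated 10 min at RT with compound (up to 57.5 uM final), then substrate plus GAPDH/TPI/NAD/arsenate coupling and diaphorase/resazurin added. Fluorescence read after 20 min at RT, 525/598 nm.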
# % is scaled to controls: 0 for no effect and ±100 for the full control effect; potency is read from the fitted curve at half-maximal effect; tags tell the direction and shape of the fitted curve.
# Sequence of UniProt A8B2U2 (A8B2U2 whole entry, looked up): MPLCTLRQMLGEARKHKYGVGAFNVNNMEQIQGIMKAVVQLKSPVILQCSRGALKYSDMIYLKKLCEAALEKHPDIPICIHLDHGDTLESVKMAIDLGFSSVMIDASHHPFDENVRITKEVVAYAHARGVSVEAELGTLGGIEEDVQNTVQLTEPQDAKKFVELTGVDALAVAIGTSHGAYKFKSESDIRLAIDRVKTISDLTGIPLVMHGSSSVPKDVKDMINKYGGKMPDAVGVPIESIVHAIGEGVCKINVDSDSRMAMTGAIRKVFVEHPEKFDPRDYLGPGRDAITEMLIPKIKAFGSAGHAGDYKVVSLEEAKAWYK
Structure (SMILES),Potency,"activity, negative = inhibition"
COc1ccccc1/C=N/NC(=O)COCC(=O)N/N=C/c1ccccc1OC,"inconclusive: 15.8 µM [inhibitor, single point]",–
Cc1ccc2cccc(Oc3ccc([N+](=O)[O-])cc3[N+](=O)[O-])c2n1,"inconclusive: 17.7 µM [inhibitor, partial curve]",–
CC1CN(C(=S)NC(=O)c2ccco2)CC(C)O1 (configuration not stated),"inconclusive: 15.8 µM [inhibitor, partial curve]",–
Cn1c(-c2ccc(=O)[nH]c2)nc2ccccc21,"inconclusive: 15.8 µM [inhibitor, single point]",–
Cc1ccccc1-c1cn(-c2ccccc2)c(=S)[nH]1,"inconclusive: 14.1 µM [activator, partial curve]",–
Cc1ccc(-c2cc(C#N)c(=O)n(Cc3c(Cl)cccc3Cl)c2)cc1,–,inactive: 3.7%
COc1ccc(CCNC(=O)CNCC2CCCO2)cc1OC (configuration not stated),active: 15.8 µM,–
Cn1c(=S)c2[nH]c(SCCN3CCCC3)nc2n(C)c1=O,active: 11.2 µM,–
CC(=O)Nc1cccc(OC(=O)c2ccoc2C)c1,"inconclusive: 35.4 µM [activator, single point]",–
N#CCCn1c(=O)c(-c2ccc(Cl)cc2)nc2cnc(OCc3ccccc3)nc21,–,inactive: -2.02%
CCCC(=O)N1CCCC(c2nc(-c3cccs3)no2)C1 (configuration not stated),–,inactive: -0.94%
CCCCN(CCCC)CC(O)COc1ccc(Br)cc1 (configuration not stated),"inconclusive: 12.6 µM [inhibitor, partial curve]",–
[O-]/C(=C(\C(=S)Nc1cccc2ccccc12)[n+]1ccccc1)c1cccs1,"inconclusive: 15.8 µM [inhibitor, single point]",–
CCOC(=O)c1sc2nc(NC(=O)C3CC3)sc2c1C,–,inactive: 2.7%
COc1ccc(-n2c(COc3ccc4c(c3)OCO4)nnc2SCC(=O)O)cc1,"inconclusive: 14.1 µM [activator, partial curve]",–
Cc1occc1-c1nnc(SCC(=O)NCc2cccs2)n1CC1CCCO1 (configuration not stated),–,inactive: 15%
CN1CCN(CC(=O)NN(Cc2ccccc2)c2ccccc2)CC1,"inconclusive: 31.5 µM [inhibitor, single point]",–
O=C1CC(N2CCc3ccccc32)C(=O)N1c1ccc(F)cc1 (configuration not stated),–,inactive: 0.374%
Cc1cc(=S)cc(C)n1CCO,"inconclusive: 17.7 µM [inhibitor, single point]",–
COC(=O)c1ccc(CO/N=C/c2ccc(OC)cc2OC)cc1,–,inactive: 10.2%
COc1ccc(OC)c2[nH]c(=O)c(CCNS(=O)(=O)c3ccc(Cl)cc3)cc12,"inconclusive: 17.7 µM [inhibitor, partial curve]",–
O=S(=O)(Nc1cccc2cccnc12)c1ccc(S(=O)(=O)N2CCCC2)cc1,"inconclusive: 12.6 µM [activator, partial curve]",–
